Results on 115 sequences are retold here after the BET-seq Pho4 binding data (Le et al. 2018).

The list shows a part of the results. These are noisy estimates, calculated here from bound and input reads.

The assay deals with T1, Pho4 (S. cerevisiae) (UniProt P07270).
T1 sequence: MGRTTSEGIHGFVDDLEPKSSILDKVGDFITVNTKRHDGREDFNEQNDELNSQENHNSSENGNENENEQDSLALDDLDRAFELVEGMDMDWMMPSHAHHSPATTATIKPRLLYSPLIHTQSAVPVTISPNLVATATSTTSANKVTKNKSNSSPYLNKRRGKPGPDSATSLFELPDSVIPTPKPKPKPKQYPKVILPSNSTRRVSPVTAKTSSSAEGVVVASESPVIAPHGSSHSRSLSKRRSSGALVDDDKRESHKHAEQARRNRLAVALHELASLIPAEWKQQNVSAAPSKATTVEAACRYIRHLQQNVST
The assay is described as follows: relative binding free energy (BET-seq); higher = weaker binding. The following applies: reference: library average.
As to TTCGTCACGTGTGTGT, the “relative binding free energy” value was 0.502 kJ/mol. Regarding GACGGCACGTGTTGGG, the “relative binding free energy” value was determined as 0.0418 kJ/mol. TAGCTCACGTGGGGGT: the “relative binding free energy” value amounted to 0.167 kJ/mol. In the case of GTGAGCACGTGTGCGT it was -0.293 kJ/mol.

With GGTGGCACGTGCTTTA, the “relative binding free energy” value is -0.628 kJ/mol. AGGGTCACGTGTAATA: the “relative binding free energy” value was found to be 1.17 kJ/mol. Regarding TGAATCACGTGAGGCG, the “relative binding free energy” value was 1.09 kJ/mol.

Take AAAGTCACGTGAAGGG: the “relative binding free energy” value is 1.21 kJ/mol. In the case of GTAGGCACGTGAGGTA it was 0.377 kJ/mol. For TTTGTCACGTGCCTGG, the “relative binding free energy” value was -0.167 kJ/mol.

Turning to CAGGTCACGTGGTGTA, the “relative binding free energy” value amounted to 0.0418 kJ/mol. With GAGTGCACGTGGTGGG, the “relative binding free energy” value was -0.167 kJ/mol. In the case of GCATGCACGTGTGGCG it was 0.209 kJ/mol. Take CGCGTCACGTGTTTGT: the “relative binding free energy” value stood at 0.377 kJ/mol. As to TTTTGCACGTGCTTGG, the “relative binding free energy” value is 0.167 kJ/mol. In the case of CCTGGCACGTGGTGTT it was -0.502 kJ/mol. In the case of AGCGTCACGTGTTATG, the “relative binding free energy” value was -0.0418 kJ/mol. Take CAAGGCACGTGGGGCA: the “relative binding free energy” value was -1 kJ/mol.

Consider TTTGACACGTGACGGG, for which the “relative binding free energy” value came out at 0.335 kJ/mol. In the case of ATGGTCACGTGACTGC, the “relative binding free energy” value was found to be 1.26 kJ/mol. For the sequence TAGAACACGTGATGGT, the “relative binding free energy” value came out at 0.46 kJ/mol. Take TATATCACGTGTTCAG: the “relative binding free energy” value amounted to 0.293 kJ/mol.

Consider ACTGTCACGTGTGATG, for which the “relative binding free energy” value worked out at 0.251 kJ/mol.

As to TTGAACACGTGGGCGT, the “relative binding free energy” value came out at 0.0418 kJ/mol.

TATTCCACGTGATAGT: the “relative binding free energy” value came to 0.669 kJ/mol. With TGATCCACGTGTTGGA, the “relative binding free energy” value came to 0.251 kJ/mol. Turning to AGTCTCACGTGGGAGG, the “relative binding free energy” value turned out to be 0.293 kJ/mol. Consider AAGGGCACGTGGAGGA, for which the “relative binding free energy” value is -0.377 kJ/mol. Consider GGACTCACGTGGGGCT, for which the “relative binding free energy” value came out at 0.418 kJ/mol. GTAAGCACGTGGAAGG: the “relative binding free energy” value is -0.167 kJ/mol. As for GTGGTCACGTGGTTCC, the “relative binding free energy” value was 0.46 kJ/mol. For TGTTCCACGTGGTCAT, the “relative binding free energy” value turned out to be 0.0837 kJ/mol. In the case of GGGTGCACGTGAAACG it was 1.8 kJ/mol. As to AGATGCACGTGTGTGA, the “relative binding free energy” value is -0.0418 kJ/mol. In the case of TTGTGCACGTGGATAA, the “relative binding free energy” value is -0.293 kJ/mol. With TAATGCACGTGTGGTA, the “relative binding free energy” value was -0.0418 kJ/mol. On to GTTTACACGTGGAAGG, for which the “relative binding free energy” value was found to be 0.879 kJ/mol. In the case of TTTAGCACGTGAGGCT it was 0.502 kJ/mol; in that of GTGATCACGTGTGTAG, 0.669 kJ/mol; in that of GCGTGCACGTGTGATG, 0.92 kJ/mol. For the sequence ATGGACACGTGAGTGT, the “relative binding free energy” value was determined as 0.837 kJ/mol. In the case of GCTGTCACGTGGGGCG it was 0.0418 kJ/mol. Consider TTCGTCACGTGGAAGA, for which the “relative binding free energy” value was 0.879 kJ/mol.

As to GCGGGCACGTGCGTGA, the “relative binding free energy” value is -0.502 kJ/mol.

GGAATCACGTGATGAG: the “relative binding free energy” value was 1.3 kJ/mol.

GTTAACACGTGTTTGT: the “relative binding free energy” value was 0.0837 kJ/mol. Consider TGTAGCACGTGGTACT, for which the “relative binding free energy” value is -0.669 kJ/mol. Take TGATTCACGTGGATGT: the “relative binding free energy” value is 1.26 kJ/mol.

Take CGGTGCACGTGGGGCG: the “relative binding free energy” value is -0.586 kJ/mol. In the case of ACTAACACGTGGGGTG it was -0.628 kJ/mol. As for GGACTCACGTGCTGGT, the “relative binding free energy” value was 0.628 kJ/mol. Then GGTGGCACGTGTAACG, with -0.0837 kJ/mol; and GTGATCACGTGGTGTA, with -0.209 kJ/mol.

For TGTGCCACGTGGCTGG, the “relative binding free energy” value is -0.669 kJ/mol.

As to TTAAGCACGTGTGGCG, the “relative binding free energy” value is 0.167 kJ/mol. As to AGGCGCACGTGGTGCT, the “relative binding free energy” value is -1.42 kJ/mol. Take GCCGGCACGTGGAGGG: the “relative binding free energy” value is -0.502 kJ/mol. Turning to TTCAGCACGTGTGGTA, the “relative binding free energy” value is -0.0418 kJ/mol. Regarding CGTATCACGTGTGCTG, the “relative binding free energy” value came out at 0.544 kJ/mol. Then GTATACACGTGACGTG, with 0.962 kJ/mol; and TTGGACACGTGGTAGC, with 0.335 kJ/mol; and CTTTTCACGTGTGTGA, with 0.753 kJ/mol.

Consider AAAAGCACGTGGTGTA, for which the “relative binding free energy” value was -0.586 kJ/mol.

Consider ATATACACGTGGATAG, for which the “relative binding free energy” value was 0.209 kJ/mol. On to GGGTACACGTGGCGCG, for which the “relative binding free energy” value was 0.293 kJ/mol. Turning to ATGGGCACGTGGAAAT, the “relative binding free energy” value was found to be 0.335 kJ/mol.

In the case of TTTCGCACGTGAGTGG, the “relative binding free energy” value was 0.544 kJ/mol. In the case of TGAATCACGTGATATG it was 1.38 kJ/mol; in that of ATCTTCACGTGAGGGA, 1.05 kJ/mol.

Turning to TGTCTCACGTGAGGGC, the “relative binding free energy” value was found to be 1.17 kJ/mol.

As to TATACCACGTGAGGTG, the “relative binding free energy” value amounted to 0.962 kJ/mol.

For the sequence TAGTTCACGTGTAGAT, the “relative binding free energy” value is 1.59 kJ/mol.

On to GGTCTCACGTGTAAGG, for which the “relative binding free energy” value worked out at 1.38 kJ/mol.

As to CGGGGCACGTGGGGTT, the “relative binding free energy” value is -0.628 kJ/mol.

For CGTATCACGTGGGAGG, the “relative binding free energy” value was 0.126 kJ/mol. On to AGCTGCACGTGTGTGA, for which the “relative binding free energy” value was 0.418 kJ/mol. On to GCGGTCACGTGACGGG, for which the “relative binding free energy” value came to 1.09 kJ/mol. For the sequence ACGAGCACGTGGTGTG, the “relative binding free energy” value is -0.92 kJ/mol. Turning to TAGTCCACGTGTGAGG, the “relative binding free energy” value was determined as 0.544 kJ/mol.

AGTATCACGTGTTCGG: the “relative binding free energy” value stood at 0.879 kJ/mol.

On to GAGGGCACGTGGGTAT, for which the “relative binding free energy” value was -0.418 kJ/mol.

As to TTTGACACGTGAAGGC, the “relative binding free energy” value amounted to 1.26 kJ/mol. Take ATTGGCACGTGGGCCG: the “relative binding free energy” value is -0.837 kJ/mol.

GCTTGCACGTGCGTGA: the “relative binding free energy” value amounted to 0.251 kJ/mol. With CTGATCACGTGGGCTG, the “relative binding free energy” value is 0.0418 kJ/mol.

Take TGTGTCACGTGACCGG: the “relative binding free energy” value was found to be 1.13 kJ/mol.

As to TATGGCACGTGCGTAT, the “relative binding free energy” value is -0.335 kJ/mol. As for TGGATCACGTGCAAGG, the “relative binding free energy” value worked out at 0.293 kJ/mol. Consider GGTAGCACGTGGTCCG, for which the “relative binding free energy” value was -0.628 kJ/mol. As to TAGAGCACGTGTCGTG, the “relative binding free energy” value is -0.46 kJ/mol.

Regarding TGGGACACGTGATATG, the “relative binding free energy” value was 0.418 kJ/mol. Take GTGTACACGTGGTGCA: the “relative binding free energy” value was -0.418 kJ/mol. On to TAGGTCACGTGATGCT, for which the “relative binding free energy” value stood at 0.711 kJ/mol. As to TGGTGCACGTGAATGG, the “relative binding free energy” value amounted to 0.669 kJ/mol. For the sequence GGGATCACGTGAGGGA, the “relative binding free energy” value came out at 1.21 kJ/mol. As for TGGAGCACGTGCTTGT, the “relative binding free energy” value is -0.418 kJ/mol. In the case of GTGATCACGTGGTTCT it was 0.92 kJ/mol.

With AAGGTCACGTGTGTTA, the “relative binding free energy” value came out at 0.46 kJ/mol. As to TGTTGCACGTGTGTCT, the “relative binding free energy” value stood at 0 kJ/mol. On to ATGTACACGTGCCAGG, for which the “relative binding free energy” value came to 0.46 kJ/mol. In the case of TAAATCACGTGTTTCT it was 0.502 kJ/mol; in that of GGAGGCACGTGTCGTA, 0.0418 kJ/mol; in that of GGGTGCACGTGTTCAT, 0.126 kJ/mol. For the sequence GATGTCACGTGTGTTC, the “relative binding free energy” value was 0.167 kJ/mol. Consider TGAGGCACGTGGGGTC, for which the “relative binding free energy” value is -0.251 kJ/mol.

In the case of TATAACACGTGTTTTA, the “relative binding free energy” value came out at 0.251 kJ/mol. Take TGTCGCACGTGGGATT: the “relative binding free energy” value was -0.544 kJ/mol. Consider TGGGGCACGTGTACTT, for which the “relative binding free energy” value was -0.418 kJ/mol. Turning to AACTGCACGTGAGGTG, the “relative binding free energy” value is 0.502 kJ/mol. Consider GGTCGCACGTGATGTA, for which the “relative binding free energy” value was determined as 0.126 kJ/mol.

As for CGGGTCACGTGAGCGT, the “relative binding free energy” value amounted to 0.335 kJ/mol.

As for TTTGACACGTGCTAGG, the “relative binding free energy” value was -0.251 kJ/mol. For the sequence AATAACACGTGGAGGT, the “relative binding free energy” value is -0.0837 kJ/mol. In the case of ATAATCACGTGCGTGT it was 0.126 kJ/mol. For the sequence GCAATCACGTGGGGCT, the “relative binding free energy” value turned out to be 0.795 kJ/mol.
